PubChem BioAssay AID485344 (National Center for Advancing Translational Sciences (NCATS), 2010)
Hit rate of the full screen: of about 340,000 compounds, about 6,900 (2%) were called active. Rule as the data show it: active = inhibition above about 30%; inactive = below that, where a call was filed. The list shows a part of the results, in another mix than the full data. The source gives no active or inactive call for entries shown without one. The source holds several records for some structures; these can differ, active in one and inactive in another.

target: D(2) dopamine receptor (Homo sapiens) (UniProt P14416); experiment: HTS Assay for Allosteric Antagonists of the Human D2 Dopamine Receptor: Primary Screen for Antagonists; settings: HEK293 TREx D2 cells, calcium flux, dopamine EC80; at 10 µM; stronger effect = higher value; also: 0% is about no effect
Chain of UniProt P14416 (P14416 whole entry, looked up): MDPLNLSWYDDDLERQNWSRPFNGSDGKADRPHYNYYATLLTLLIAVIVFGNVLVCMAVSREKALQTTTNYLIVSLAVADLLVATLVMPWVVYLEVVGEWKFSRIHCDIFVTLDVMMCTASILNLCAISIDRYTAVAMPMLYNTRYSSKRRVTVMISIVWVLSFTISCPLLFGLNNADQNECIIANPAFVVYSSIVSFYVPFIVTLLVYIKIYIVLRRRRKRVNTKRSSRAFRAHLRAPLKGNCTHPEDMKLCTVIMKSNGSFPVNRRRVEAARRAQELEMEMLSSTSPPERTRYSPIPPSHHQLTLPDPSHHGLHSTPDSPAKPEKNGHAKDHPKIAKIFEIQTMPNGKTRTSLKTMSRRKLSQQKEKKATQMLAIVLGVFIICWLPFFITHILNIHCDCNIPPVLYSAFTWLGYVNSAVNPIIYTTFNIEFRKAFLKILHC
Outline: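 Cells plated overnight at 30 C with tetracycline; no-wash calcium dye, 30–90 min RT; 10 s baseline; compound pinned; 180 s read; EC80 dopamine added; another 180 s read.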

SMILES	inhibition
O=C(NCCc1ccccc1)c1cnc2sc(N3CCCCCC3)nn2c1=O	-3.61%
O=C(c1cc2ccccc2oc1=O)N1CCN(c2ccc(Cl)cc2)CC1	-4%
Cc1cc2oc(C(=O)Nc3ccc(S(N)(=O)=O)cc3)cc(=O)c2cc1C	8.98%
Cc1ccc(C(=O)N2c3ccc(C)cc3C(C)(c3ccccc3)CC2(C)C)cc1 (stereo unspecified)	9.3%
Cc1cc(C(F)(F)F)n2nc(-c3ccc(Br)cc3)cc2n1	9.08%
CCCCOc1ccc(-c2nn(-c3ccccc3)cc2C2NC(=O)NC(C)=C2C(=O)OCC)cc1 (stereo unspecified)	8.04%
CC(NC(=O)c1ccc2c(c1)CCN2S(C)(=O)=O)c1ccccc1 (stereo unspecified)	-1.87%
Cc1c(Cl)cccc1NC(=O)c1cccc(NC(=O)N2CCSc3ncccc32)c1	7.86%
CCOc1ccc(NC(=O)CSC2=Nc3ccccc3C3=NC(CCC(=O)NCc4ccccc4)C(=O)N23)cc1 (stereo unspecified)	-27.3%
NC(=O)c1cc[n+](Cc2ccc([N+](=O)[O-])cc2)cc1	active: 39.2%
CCOC(=O)CC(NC(=O)CCc1c(C)nc2c(c(C)nn2-c2ccc(C)c(C)c2)c1C)c1ccc(C)cc1 (stereo unspecified)	3.91%
Cc1cc(C)cc(OCC(=O)Nc2nc3c(s2)CC(C(C)(C)C)CC3)c1 (stereo unspecified)	0.0533%
COc1ccc(OC)c2sc(NC(=O)c3ccc(S(=O)(=O)N4CCCC4)cc3)nc12	2.07%
Cc1cccc(-n2ncc(C(=O)N3CCN(C4CCCCC4)CC3)c2C2CCN(C(=O)OC(C)(C)C)CC2)c1	3.68%
CCc1ccc(C(=O)N/N=C/c2ccc(Cl)cc2Cl)nc1	active: 72.8%
C=CC[N+](C)(C)CCCNC(=O)/C=N/O	active: 61.8%
CCc1nnc(NC(=O)c2nc(S(=O)(=O)Cc3ccc(C)cc3)ncc2Cl)s1	2.36%
CCC(=O)N1CCc2cc(S(=O)(=O)NC(C(=O)NCCc3ccccc3)C(C)C)ccc21 (stereo unspecified)	1.23%
Cc1cc(C)c(NC(=O)C(C)n2c(=O)c(C(F)(F)F)nc3ccccc32)c(C)c1 (stereo unspecified)	7.46%
CCn1c2ccccc2c2cc(NC(=O)c3cccc([N+](=O)[O-])c3)ccc21	active: 42%
COc1ccc(CNc2nc(SCc3ccc(Cl)cc3)nc3ccccc23)cc1	2.83%
CCN(c1cccc(C)c1)S(=O)(=O)c1ccc(N2CCCCS2(=O)=O)cc1	-8%
COc1ccccc1C(=O)Oc1c(Sc2ccccc2)c(C)nn1C(C)(C)C	10.5%
Cc1ccc(NC(=O)c2cc(S(=O)(=O)N(C)C3CCCCC3)ccc2F)cc1C	15.1%

SMILES	inhibition
COc1ccc(-c2c3c(=O)n(C)c(=O)n(C)c3c3n2-c2ccccc2NC3c2ccc(OC)cc2)cc1 (stereo unspecified)	12.2%
CC(C)NC(=O)CN(Cc1ccc2c(c1)OCO2)C(=O)CCC(=O)Nc1ccccn1	active: 43.2%
CCCCCN1C(C(=O)c2ccccc2)=C(NC(=O)c2ccc(OC)cc2)c2ccccc2S1(=O)=O	6.51%
O=C(Nc1ccc(C(=O)N2CCN(c3cccc(Cl)c3)CC2)cc1)c1nsc2ccccc12	11.7%
COc1cccc(CNC(=O)Cn2c(=O)ccc3cc(S(=O)(=O)N4CCC(C)CC4)ccc32)c1	-11.6%
COc1cccc(C(=O)NCc2ccc3c(c2)CCN3C(=O)c2ccncc2)c1	16.5%
COc1ccc(-n2c3c(c(=O)[nH]c2=O)C(NC(=O)c2ccccc2Cl)(C(F)(F)F)C(=O)N3)cc1 (stereo unspecified)	7.64%
COc1ccccc1-c1nc(SCC(=O)c2ccccc2)n[nH]1	6.79%
COc1ccc(-c2[nH]c(-c3cccc(OC)c3)nc2SCC(=O)Nc2ccc3c(c2)OCO3)cc1	24.1%
COc1cccc(-c2cc(C(=O)Nc3c(C)nn(Cc4ccccc4Cl)c3C)no2)c1	12.6%
CC(C)CCn1c(=O)c2cccnc2n(CC(=O)Nc2ccc(F)cc2)c1=O	-18.5%
Cc1cc2nnc(SCc3ccc(F)cc3)n2c2ccccc12	-0.232%
CC1CN(c2ccc(Cl)cc2)c2nc3c(c(=O)n(CC(=O)O)c(=O)n3C)n2C1 (stereo unspecified)	-4.14%
COc1ccc2occ(CC(=O)Nc3ccc(S(=O)(=O)Nc4nccc(C)n4)cc3)c2c1	-9.85%
CN1CCN(C2(CNC(=O)c3ccc(C(C)(C)C)cc3)CCCCC2)CC1	4.09%
CCC1(C)CC(=O)c2c(ccc3oc(C(=O)NCc4ccccc4)c(C)c23)O1 (stereo unspecified)	-12.9%
CCOc1ccc(C(=O)c2cn(CC(=O)Nc3ccc(OC)cc3)c3cc4c(cc3c2=O)OCCO4)cc1	3.13%
Cc1ccc2oc3c(c(=O)c2c1)C(c1ccc(O)cc1)N(Cc1ccc2c(c1)OCO2)C3=O (stereo unspecified)	5.48%
COc1ccc2[nH]c(=O)c(CN(C(=O)c3cccc(Cl)c3)c3ccccc3C)cc2c1	-14.4%
CCOc1ccc(C(=O)/C=C/c2cn(CC(O)CN3CCCCCC3)c3ccccc23)cc1 (stereo unspecified)	-2.05%
CCCCN(CC)CCNC(=O)c1c(C)oc2ncnc(N3CCOCC3)c12	11.3%
Cc1ccccc1C(=O)Nc1cc2c(cc1N1CCOCC1)n(C)c(=O)n2C	16.9%
CCOC(=O)CN(C(=O)CSc1nnc2c(n1)[nH]c1c(C)cc(C)cc12)c1ccccc1	active: 60.8%
COc1ccc(OCC(=O)Nc2nnc(S(=O)(=O)N3CCc4ccccc43)s2)cc1	-5.61%

SMILES	inhibition
Cc1cccc(C)c1Nc1c(-c2ccccc2F)nc2cccc(C)n12	22.7%
COc1ccc(OC)c(NC(=O)c2cc3c(n(-c4ccc(Cl)cc4)c2=O)CC(C)(C)CC3=O)c1	-3.74%
CN1CCN(C2=Cc3ccccc3Sc3cc(F)ccc32)CC1	active: 80%
O=C(CN1CCN(Cc2ccc(F)cc2)C1=O)NCc1ccccc1Cl	-6.73%
COc1cccc(-c2nn(C)c3sc(C(=O)NCc4cc(OC)ccc4OC)cc23)c1	1.92%
Cc1cc(C)cc(NC(=O)CN(c2cc(C(F)(F)F)ccc2Cl)S(=O)(=O)c2ccccc2)c1	8.61%
O=C(CCS(=O)(=O)c1nc(-c2cccs2)cc(C(F)(F)F)n1)Nc1ccc(OC(F)(F)F)cc1	-15.4%
COC(=O)c1ccccc1NC(=O)C1=CC(c2ccc(C)cc2)=NS(=O)(=O)N1C	13.8%
COc1ccc(C2c3c(oc4ccccc4c3=O)C(=O)N2Cc2ccc3c(c2)OCO3)cc1 (stereo unspecified)	3.69%
CC(C)(C)c1ccc(Cn2c(Cc3ccccc3)nc3ccccc32)cc1	0.0043%
CCOc1ccc(-c2nonc2NC(=O)c2oc3ccc(F)cc3c2C)cc1	5.06%
CCOC(=O)c1ccccc1NC(=O)CSc1ncc(CO)n1Cc1ccc(C)cc1	-24%
Cc1nn2c(=O)cc(CN(C)c3ccccc3)nc2s1	-0.415%
c1ccc(-c2noc(CN3CCc4sccc4C3)n2)cc1	active: 35.3%
O=C(COc1ccccc1Cl)Nc1cc(-c2ccccc2F)nn1-c1ccccc1	-13.7%
COc1ccccc1NC(c1ccc(Cl)cc1)c1nnc(-c2cccc(F)c2)o1 (stereo unspecified)	7.19%
CC(=O)c1ccc(NC(=O)CCc2c(C)nc3c(c(C)nn3-c3ccc(C)cc3)c2C)cc1	4.43%
O=C(Cn1c(SCc2cccc(F)c2)nc2cccnc21)Nc1ccc(F)c(Cl)c1	-6.74%
COc1ccc(NC(=O)C(c2ccc(C)cc2)N(C)C(=O)/C=C\c2ccc3c(c2)OCO3)cc1 (stereo unspecified)	-6.01%
O=S(=O)(NCc1csc(-c2ccccc2)n1)c1cccc(F)c1	2.37%
Cc1ccc(CN(Cc2ccco2)C(=O)COc2ccccc2C)cc1	-21.7%
COC(=O)Nc1nc2c(C)cccc2s1	active: 37.9%
CCOC(=O)c1ccc(NC(=O)CCc2c(C)nc3c(c(C)nn3-c3ccccc3)c2C)cc1	-12.9%
COc1cccc(C2=C(C(C)=O)Sc3nncn3N2C(C)=O)c1	-1.16%

SMILES	inhibition
COc1ccc(S(=O)(=O)N(C)C)cc1NC(=O)CSC(C)C(=O)Nc1cc(C)on1 (stereo unspecified)	active: 72.4%
Cc1cc(Cl)ccc1OCCCC(=O)NCCCn1ccnc1	active: 35.7%
CNS(=O)(=O)c1cn(CC(=O)N2CCN(c3ccccc3F)CC2)cc1S(=O)(=O)NC	-9.39%
CCc1ccc(OC(C)c2nc(-c3ccc(-n4cccc4)cc3)no2)cc1 (stereo unspecified)	-4.03%
COCc1nc2cccnc2n1C1CCN(S(=O)(=O)N(C)C)CC1	5.08%
CCOc1ccc(CCNc2ncnc3onc(-c4ccc(Cl)cc4)c23)cc1OCC	-13.7%
Cn1cnc(S(=O)(=O)N2CCC(C(=O)NCc3ccccc3Cl)CC2)c1	13.2%
Cc1ncc([N+](=O)[O-])n1CCO	active: 38.2%
COc1cccc(NC(=O)CSc2nc3ccc(NC(=O)c4cccs4)cc3s2)c1	-7.29%
CCOC(=O)C1(CCOC)CCN(Cc2nc(C(C)C)cs2)CC1	active: 32.8%
COc1cccc(-c2nnc(SCC(=O)NC3CCS(=O)(=O)C3)n2C)c1 (stereo unspecified)	active: 39%
CCOC(=O)c1c(NC(=O)/C=C/c2ccc(C(C)C)cc2)sc2c1CCC2	-11.6%
Cc1ccc(NC(=O)Nc2nnc(N3CCCC3)s2)cc1	-3.75%
Cc1cccc(C(=O)Nc2sc3c(c2C(=O)N2CCCCC2)CCC(C)C3)c1 (stereo unspecified)	-2.29%
CC1CCCC(NC(=O)c2cn(C)c3ccc(S(=O)(=O)N4CCCC4)cc3c2=O)C1C (stereo unspecified)	active: 30.8%
CCN(CC)CCNC(=O)c1c(C)oc2ncn(C)c(=O)c12	-8.72%
O=C(CCc1cn(Cc2ccc(F)cc2)c2ccccc12)NCCc1ccc(Cl)cc1	16.8%
Cc1cccc(CN2CCC(CNC(=O)c3c(C)oc4ncnc(N5CCCCC5)c34)CC2)c1	5.91%
CC(Sc1nc(=O)cc(N)n1CCc1ccccc1)C(=O)Nc1ccc(Cl)cc1 (stereo unspecified)	-0.172%
CSc1nsc(SCC(=O)Nc2ccc(C(N)=O)cc2)n1	active: 37.4%
CCN(C(=O)C1CCC(CNS(=O)(=O)c2cccc3nsnc23)CC1)c1ccc(C)c(C)c1 (stereo unspecified)	18.1%
O=C(NCCc1ccccc1)c1nc2nc(-c3cccs3)cc(C(F)(F)F)n2n1	active: 40.4%
CCOC(=O)C1CCN(c2nc3c(S(=O)(=O)c4ccccc4)nnn3c3ccsc23)CC1	-2.81%
Cc1ccccc1C(=O)Nc1ccc(OCc2cc(=O)n3cccc(C)c3n2)cc1	7.02%
